# Results published in the BET-seq Pho4 binding data (Le et al. 2018).
# The other results are listed elsewhere or left out. These are noisy estimates, calculated here from bound and input reads.
# Biological target: T1, Pho4 (S. cerevisiae) (UniProt P07270)
# T1 sequence: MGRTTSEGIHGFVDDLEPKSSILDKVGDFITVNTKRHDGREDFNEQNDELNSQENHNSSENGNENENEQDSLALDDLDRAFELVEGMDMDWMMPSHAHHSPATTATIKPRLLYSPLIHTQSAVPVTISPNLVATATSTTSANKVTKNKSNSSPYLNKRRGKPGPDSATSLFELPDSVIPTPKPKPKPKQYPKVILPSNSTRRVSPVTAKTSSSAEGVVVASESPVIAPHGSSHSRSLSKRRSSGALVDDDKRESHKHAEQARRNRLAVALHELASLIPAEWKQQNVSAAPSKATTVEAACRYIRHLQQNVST
# Test: relative binding free energy (BET-seq); higher = weaker binding
# Settings: reference: library average
row,Sequence,relative binding free energy [kcal/mol]
1,TGGAGCACGTGGAGTG,-0.02
2,TTTTACACGTGAGTTT,0.4
3,AAAATCACGTGAGGGA,0.35
4,TAGTACACGTGTAGTG,0.16
5,GTCAGCACGTGGGGCA,-0.15
6,ATTTGCACGTGTGGCA,0.08
7,GGAGGCACGTGCGTGT,-0.1
8,TGCATCACGTGATTTT,0.3
9,GATTGCACGTGGGATT,0.08
10,TCAGACACGTGTTTGT,-0.06
11,ACTGTCACGTGGGAGT,-0.05
12,GTCATCACGTGTGATT,0.19
13,ACTTTCACGTGGATTG,0.21
14,GTTGGCACGTGGGGAA,-0.16
15,TTGATCACGTGTGGTA,0.21
16,TGGTACACGTGATCGG,0.21
17,GCTTTCACGTGGTGGG,0.28
18,TCTAGCACGTGTTTTA,-0.08
19,AATTGCACGTGGGTGC,-0.13
20,TGGTACACGTGAAATT,0.26
21,GGGGGCACGTGAGGAA,0.11
22,TGGAGCACGTGATGGT,0.06
23,AAGGTCACGTGTGGGC,0.12
24,AGAGGCACGTGTTAAT,-0.04
25,GTAGGCACGTGAGGAA,0.14

row,Sequence,relative binding free energy [kcal/mol]
1,GTAAGCACGTGGCGGA,-0.13
2,GTGGACACGTGATTGA,0.17
3,GATCACACGTGGAGTT,0.41
4,ATTCGCACGTGTAGTT,0.06
5,GTGAACACGTGAGGGT,0.24
6,AGAGTCACGTGGCGTG,-0.03
7,AAAGGCACGTGGTTTC,-0.1
8,TAGTACACGTGGAGGT,0.06
9,GGCTGCACGTGGACGG,0.15
10,TGTGGCACGTGTCAAT,0.01
11,GTATGCACGTGGAGGC,-0.13
12,TTAATCACGTGGTGGG,0.06
13,GTAGGCACGTGTAGGT,-0.01
14,AAAGGCACGTGAAATT,0.27
15,ATGTACACGTGGTGAG,0.02
16,TTTAGCACGTGTGTGG,-0.02
17,GGTCTCACGTGTAAAT,0.46
18,GTAGGCACGTGGCCTG,-0.21
19,GTAGCCACGTGTTTGG,0
20,TGGCGCACGTGTGAGA,0.18
21,TGTGACACGTGAGGAG,0.13
22,TTGTTCACGTGTGTAC,0.24
23,AAAGTCACGTGGGAAT,0.07
24,GGAATCACGTGGGAAT,0.23
25,ACGATCACGTGATTGG,0.33

row,Sequence,relative binding free energy [kcal/mol]
1,CATGACACGTGGTATT,0.04
2,TTTCGCACGTGTGAAG,0.1
3,ACGAGCACGTGAGTGG,0.06
4,TGAGGCACGTGTTCGA,-0.18
5,TAGTTCACGTGGGTTC,0.08
6,CTTTACACGTGGGCGT,0.06
7,GATTACACGTGCTGGT,0.05
8,TGGTTCACGTGGTGTT,0.29
9,GGGTTCACGTGTCCGT,0.22
10,TAGAGCACGTGGTCGG,-0.26
11,GGTCTCACGTGTAGAA,0.43
12,AGTGTCACGTGGGTTG,-0.1
13,ATATGCACGTGGTAAA,0.01
14,TGGGACACGTGTCGTA,0.07
15,ATGAACACGTGGGATT,-0.05
16,GTCGGCACGTGGTATG,-0.12
17,GGTGGCACGTGCGAGA,-0.06
18,AATGGCACGTGCGAGG,-0.21
19,TTCGACACGTGAATTG,0.32
20,GTAAACACGTGTTTTA,0.02
21,GGGTGCACGTGAGGAT,0.31
22,AAGTACACGTGATATG,0.14
23,TTTATCACGTGACTGT,0.39
24,AGGTGCACGTGTAAGC,-0.01
25,GGGAGCACGTGCTAGG,-0.31

row,Sequence,relative binding free energy [kcal/mol]
1,AGCGTCACGTGCGGTT,0.03
2,GGGGTCACGTGGATTC,0.28
3,GTATGCACGTGCGTAG,-0.05
4,AAGCTCACGTGGTAGG,0.28
5,GAATGCACGTGAAAGG,0.32
6,AGGGGCACGTGAAAAT,0.3
7,GATCGCACGTGGGGGC,-0.14
8,AGTCACACGTGGGTGC,-0.15
9,CTCGGCACGTGTAGGT,-0.11
10,TTTCTCACGTGTTTTT,0.24
11,GTATTCACGTGAATGT,0.45
12,GATCTCACGTGTGGTG,0.14
13,TAGGGCACGTGTACAG,-0.16
14,GGTGACACGTGTCGTT,0.19
15,GCTGTCACGTGAGTAT,0.24
16,TGGGCCACGTGAGGGG,0.05
17,GGATTCACGTGCGGGG,0.31
18,ATGCACACGTGGGTAG,-0.07
19,AGGGGCACGTGGTATT,-0.18
20,ACTTGCACGTGTTGTT,0.13
21,GGGTTCACGTGATTAC,0.55
22,AAGAGCACGTGTATTG,-0.15
23,GTTAACACGTGTGTGA,0.08
24,CGCGACACGTGAGGTT,0.26
25,CGTCTCACGTGAGGTG,0.37

row,Sequence,relative binding free energy [kcal/mol]
1,TTTATCACGTGGCTGA,0.23
2,TAGTACACGTGGGTCG,-0.23
3,TGAGTCACGTGTGAAG,0.11
4,TTCGGCACGTGTTTGA,-0.23
5,TAAAACACGTGGTAGG,-0.11
6,TAGGTCACGTGTCGTG,0.11
7,TTATTCACGTGGGCGA,0.12
8,GTTTCCACGTGAGGGT,0.35
9,TATTTCACGTGTTGCA,0.26
10,TAAGCCACGTGGGCTG,-0.15
11,GGCTGCACGTGATTTG,0.41
12,TAAGACACGTGGATTG,0.06
13,CAATGCACGTGGGGAT,-0.28
14,GATTTCACGTGGATTT,0.27
15,AATCTCACGTGGTGTG,0.23
16,GGTGACACGTGGTGAC,0.14
17,ATTCTCACGTGGTAGT,0.14
18,CTGGTCACGTGCAGTT,0.08
19,TTTGGCACGTGGGACT,-0.07
20,TAGCTCACGTGTCGGG,0.15
21,TAGGTCACGTGGGGCG,-0.07
22,AGGGTCACGTGGCATT,0.03
23,TCTGCCACGTGCGTGG,0.01
24,TGTCGCACGTGCTGGT,-0.09
25,CATGACACGTGTGTAT,0.13

row,Sequence,relative binding free energy [kcal/mol]
1,GTGTCCACGTGGCGTT,-0.01
2,TTGATCACGTGTTGTC,0.24
3,GATGGCACGTGTGTGG,0.03
4,TGTATCACGTGCCGTT,0.2
5,AAGGGCACGTGCTGCG,-0.27
6,AAAGTCACGTGGTTTC,0.18
7,AATGACACGTGCAGTG,0.15
8,CGATTCACGTGGATAT,0.4
9,GTTAGCACGTGGTTGG,-0.11
10,TGGACCACGTGTAGGG,-0.11
11,ATTTACACGTGGAGCT,0.23
12,TGGCCCACGTGGGATG,-0.15
13,TAGTGCACGTGCGTAT,-0.23
14,TGAGACACGTGGCATG,-0.03
15,GTTTTCACGTGTGTTT,0.36
16,TTTTGCACGTGAGAAG,0.27
17,AATATCACGTGGGTAG,0.03
18,ATTGTCACGTGAAGGG,0.16
19,AGAGACACGTGGGATT,-0.01
20,TGGTCCACGTGTGTGT,-0.06
21,ATGTGCACGTGGCAGT,-0.12
